# Source: the supplement of paper PMC8728848
# The other results are listed elsewhere or left out.
# B1: Cohesin-marm-DC-ASGPR (protein)
# chain: LDITSHHHHHHDDLDAVRIKVDTVNAKPGDTVRIPVRFSGIPSKGIANCDFVYSYDPNVLEIIEIEPGDIIVDPNPDKSFDTAVYPDRKIIVFLFAEDSGTGAYAITKDGVFATIVAKVKEGAPNGLSVIKFVEVGGFANNDLVEQKTQFFDGGVNVGDTTEPATPTTPVTTPTTTDDLDAASSKFQRDLVTLRTDFSNFTSNTLAEIQALTSQGSSLQETIASLKAEVEGHKQELQAGASELQEHNKQKAHLGRCPHTCVCPSSFVCVPVHSEILLRVQQLVQDLNKLSCQVAILKNNATTERTCCPINWVEHQGSCYWFSRSGKTWPEAERYCQLENTHLVVINSREEQNFVQAHLGSAYTWMGLSDPEGVWKWVDGTDYSSGFQNWKPGQPDDWQGHGLGGGEDCAHFHPDGRWNDDVCQRSYHWVCEAGLTQASQDSHAS
# How the values were obtained:
# Assay in all cases: glycan array binding signal (z-score within array); higher = stronger binding
# Details in all cases: glycan notation: IUPAC condensed, linker removed
# Fuc(a1-3)GlcNAc = biological target: Fuc(a1-3)GlcNAc
# Outline: (§1)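 The binding signal is a Z-score computed within each array. Data were drawn from 3228 arrays in the Consortium for Functional Glycomics database, restricted to those with a known protein sequence. Scores were averaged over arrays of the same protein sequence at different concentrations or buffers, and over linkers, and negative values can be taken as non-binding.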
# [1] = biological target: Fuc(a1-3)[Gal(b1-4)]Glc6S
# Outline: as §1
# [2] = biological target: Fuc(a1-3)[Gal(b1-4)]GlcNAc
# Outline: as §1
# [3] = biological target: Fuc(a1-3)[Gal(b1-4)]GlcNAc(b1-2)Man
# Outline: as §1
# [4] = biological target: Fuc(a1-3)[Gal(b1-4)]GlcNAc(b1-2)Man(a1-3)[Fuc(a1-3)[Gal(b1-4)]GlcNAc(b1-2)Man(a1-6)]Man(b1-4)GlcNAc(b1-4)GlcNAc
# Outline: as §1
# [5] = biological target: Fuc(a1-3)[Gal(b1-4)]GlcNAc(b1-2)Man(a1-3)[Fuc(a1-3)[Gal(b1-4)]GlcNAc(b1-2)Man(a1-6)]Man(b1-4)GlcNAc(b1-4)[Fuc(a1-6)]GlcNAc
# Outline: as §1
# [6] = biological target: Fuc(a1-3)[Gal(b1-4)]GlcNAc(b1-3)Gal(b1-3)[Fuc(a1-4)]GlcNAc
# Outline: as §1
# [7] = biological target: Fuc(a1-3)[Gal(b1-4)]GlcNAc(b1-3)Gal(b1-4)[Fuc(a1-3)]GlcNAc
# Outline: as §1
# [8] = biological target: Fuc(a1-3)[Gal(b1-4)]GlcNAc(b1-3)Gal(b1-4)[Fuc(a1-3)]GlcNAc(b1-3)Gal(b1-4)[Fuc(a1-3)]GlcNAc
# Outline: as §1
# [9] = biological target: Fuc(a1-3)[Gal(b1-4)]GlcNAc(b1-3)GalNAc
# Outline: as §1
# [10] = biological target: Fuc(a1-3)[Gal(b1-4)]GlcNAc(b1-6)GalNAc
# Outline: as §1
# [11] = biological target: Fuc(a1-3)[Gal(b1-4)]GlcNAc(b1-6)[Gal(b1-3)GlcNAc(b1-3)]Gal(b1-4)Glc
# Outline: as §1
# [12] = biological target: Fuc(a1-3)[Gal(b1-4)]GlcNAc6S
# Outline: as §1
# [13] = biological target: Fuc(a1-3)[Gal3S(b1-4)]Glc
# Outline: as §1
# [14] = biological target: Fuc(a1-3)[Gal3S(b1-4)]GlcNAc
# Outline: as §1
# [15] = biological target: Fuc(a1-3)[Gal3S(b1-4)]GlcNAc6S
# Outline: as §1
# [16] = biological target: Fuc(a1-3)[GalNAc(b1-4)]GlcNAc
# Outline: as §1
# [17] = biological target: Fuc(a1-3)[GalNAc(b1-4)]GlcNAc6S
# Outline: as §1
# Fuc(a1-4)GlcNAc = biological target: Fuc(a1-4)GlcNAc
# Outline: as §1
# Fuc(b1-3)GlcNAc = biological target: Fuc(b1-3)GlcNAc
# Outline: as §1
# Gal(a1-2)Gal = biological target: Gal(a1-2)Gal
# Outline: as §1
# Gal(a1-3)Gal = biological target: Gal(a1-3)Gal
# Outline: as §1
# Gal(a1-3)Gal(b1-3)GlcNAc = biological target: Gal(a1-3)Gal(b1-3)GlcNAc
# Outline: as §1
# [18] = biological target: Gal(a1-3)Gal(b1-3)GlcNAc(b1-2)Man
# Outline: as §1
# [19] = biological target: Gal(a1-3)Gal(b1-3)GlcNAc(b1-2)Man(a1-3)[Gal(a1-3)Gal(b1-3)GlcNAc(b1-2)Man(a1-6)]Man(b1-4)GlcNAc(b1-4)GlcNAc
# Outline: as §1
# [20] = biological target: Gal(a1-3)Gal(b1-3)GlcNAc(b1-3)GalNAc
# Outline: as §1
# [21] = biological target: Gal(a1-3)Gal(b1-3)GlcNAc(b1-6)GalNAc
# Outline: as §1
# [22] = biological target: Gal(a1-3)Gal(b1-3)[Fuc(a1-4)]GlcNAc(b1-2)Man(a1-3)[Gal(a1-3)Gal(b1-3)[Fuc(a1-4)]GlcNAc(b1-2)Man(a1-6)]Man(b1-4)GlcNAc(b1-4)GlcNAc
# Outline: as §1
# Gal(a1-3)Gal(b1-4)Glc = biological target: Gal(a1-3)Gal(b1-4)Glc
# Outline: as §1
# Gal(a1-3)Gal(b1-4)GlcNAc = biological target: Gal(a1-3)Gal(b1-4)GlcNAc
# Outline: as §1
# [23] = biological target: Gal(a1-3)Gal(b1-4)GlcNAc(b1-2)Man
# Outline: as §1
# [24] = biological target: Gal(a1-3)Gal(b1-4)GlcNAc(b1-2)Man(a1-3)[Gal(a1-3)Gal(b1-4)GlcNAc(b1-2)Man(a1-6)]Man(b1-4)GlcNAc(b1-4)GlcNAc
# Outline: as §1
# [25] = biological target: Gal(a1-3)Gal(b1-4)GlcNAc(b1-3)GalNAc
# Outline: as §1
# [26] = biological target: Gal(a1-3)Gal(b1-4)GlcNAc(b1-6)GalNAc
# Outline: as §1
# [27] = biological target: Gal(a1-3)Gal(b1-4)[Fuc(a1-3)]GlcNAc
# Outline: as §1
# [28] = biological target: Gal(a1-3)Gal(b1-4)[Fuc(a1-3)]GlcNAc(b1-2)Man(a1-3)[Gal(a1-3)Gal(b1-4)[Fuc(a1-3)]GlcNAc(b1-2)Man(a1-6)]Man(b1-4)GlcNAc(b1-4)GlcNAc
# Outline: as §1
# Gal(a1-3)GalNAc = biological target: Gal(a1-3)GalNAc
# Outline: as §1
binder,measurement,setting,value
B1,glycan array binding signal (z-score),Fuc(a1-3)GlcNAc,-0.251
same,glycan array binding signal (z-score),[1],-0.286
same,glycan array binding signal (z-score),[2],-0.254
same,glycan array binding signal (z-score),[3],-0.28
same,glycan array binding signal (z-score),[4],-0.172
same,glycan array binding signal (z-score),[5],-0.291
same,glycan array binding signal (z-score),[6],-0.3
same,glycan array binding signal (z-score),[7],-0.271
same,glycan array binding signal (z-score),[8],-0.299
same,glycan array binding signal (z-score),[9],-0.279
same,glycan array binding signal (z-score),[10],1.3
same,glycan array binding signal (z-score),[11],-0.301
same,glycan array binding signal (z-score),[12],-0.312
same,glycan array binding signal (z-score),[13],-0.219
same,glycan array binding signal (z-score),[14],-0.235
same,glycan array binding signal (z-score),[15],-0.193
same,glycan array binding signal (z-score),[16],3.68
same,glycan array binding signal (z-score),[17],2.7
same,glycan array binding signal (z-score),Fuc(a1-4)GlcNAc,-0.178
same,glycan array binding signal (z-score),Fuc(b1-3)GlcNAc,-0.264
same,glycan array binding signal (z-score),Gal(a1-2)Gal,-0.248
same,glycan array binding signal (z-score),Gal(a1-3)Gal,-0.305
same,glycan array binding signal (z-score),Gal(a1-3)Gal(b1-3)GlcNAc,-0.003
same,glycan array binding signal (z-score),[18],-0.308
same,glycan array binding signal (z-score),[19],-0.271
same,glycan array binding signal (z-score),[20],-0.265
same,glycan array binding signal (z-score),[21],3.73
same,glycan array binding signal (z-score),[22],-0.285
same,glycan array binding signal (z-score),Gal(a1-3)Gal(b1-4)Glc,-0.28
same,glycan array binding signal (z-score),Gal(a1-3)Gal(b1-4)GlcNAc,-0.291
same,glycan array binding signal (z-score),[23],-0.224
same,glycan array binding signal (z-score),[24],-0.186
same,glycan array binding signal (z-score),[25],-0.3
same,glycan array binding signal (z-score),[26],3.96
same,glycan array binding signal (z-score),[27],-0.243
same,glycan array binding signal (z-score),[28],-0.244
same,glycan array binding signal (z-score),Gal(a1-3)GalNAc,-0.297
